# Data taken from the supplement of paper PMC10037445.
# Several values for one entry are separate records, joined by “and”; a condition that tells them apart may be missing. Identical values can stand only once. In all, about 2,900 compounds were measured (“NF-kB SEAP reporter activity, fold change vs agonist alone”: median about 0.99, highest 2% from about 2.6 on). The list shows a part of the results.
# What was measured:
# RAW-Dual [1] = experiment: NF-kB SEAP reporter activity, fold change vs agonist alone; cytotoxicity flag (confluency mask): not cytotoxic; higher = enhanced NF-kB activity
# Method in brief: (§1)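 Library stock was pin-tooled at 50 nL into 384-well plates of RAW-Dual macrophages (50,000 cells/well, DMEM), followed 1 h later by a PRR agonist, and the cells were kept at 37 °C, 5% CO2. Supernatant collected after 20 hours was read for IRF by QuantiLuc luminescence and for NF-κB by QuantiBlue absorbance at 620 nm. Reporter activity is fold change over agonist-alone wells, and a well counted as cytotoxic when its IncuCyte confluency was below 70% of agonist controls in both mask sets.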
# RAW-Dual [2] = experiment: NF-kB SEAP reporter activity, fold change vs agonist alone; higher = enhanced NF-kB activity; conditions: library stock concentration (final ~1000-fold dilution): 10 mM, cytotoxicity flag (confluency mask): not cytotoxic
# Method in brief: as §1
# [3] = agonist: ODN 1826 (TLR9) 0.5 ug/mL
# [4] = agonist: Pam2CSK4 (TLR2/6) 0.1 ug/mL
# [5] = agonist: Pam3CSK4 (TLR2/1) 0.1 ug/mL
SMILES,NF-kB SEAP reporter activity (RAW-Dual [1]; agonist: LPS (TLR4) 0.1 ug/mL),NF-kB SEAP reporter activity (RAW-Dual [1]; [3]),NF-kB SEAP reporter activity (RAW-Dual [1]; [4]),NF-kB SEAP reporter activity (RAW-Dual [1]; [5]),NF-kB SEAP reporter activity (RAW-Dual [2]; agonist: Imiquimod (TLR7) […]),NF-kB SEAP reporter activity (RAW-Dual [2]; agonist: MPLA (TLR4) […])
CC(C)=CCC[C@](C)(O)[C@H]1CC[C@]2(C)[C@@H]3CCC4C(C)(C)[C@@H](O)CC[C@]4(C)[C@H]3C[C@@H](O)[C@@]12C (stereo partly drawn) (library stock concentration (final ~1000-fold dilution): 10 mM),1.41,0.693,0.848,0.882,–,–
CC(C)=CCC[C@](C)(O)[C@H]1CC[C@]2(C)[C@@H]3CCC4C(C)(C)[C@@H](O)CC[C@]4(C)[C@H]3C[C@@H](O)[C@@]12C (stereo partly drawn),–,–,–,–,0.934,1.14
N#Cc1c(Oc2ccc(F)c(NC(=O)Cc3cccc(C(F)(F)F)c3)c2)ccc2nc(NC(=O)C3CC3)sc12 (library stock concentration (final ~1000-fold dilution): 10 mM),1.25,0.983,0.354,0.396,–,–
N#Cc1c(Oc2ccc(F)c(NC(=O)Cc3cccc(C(F)(F)F)c3)c2)ccc2nc(NC(=O)C3CC3)sc12,–,–,–,–,1.02,1.05
COC(=O)C1=COC(OC2OC(CO)C(O)C(O)C2O)C2C1CC(O)C2C (stereo not drawn) (library stock concentration (final ~1000-fold dilution): 10 mM),1,0.942,1.13,1.04,–,–
COC(=O)C1=COC(OC2OC(CO)C(O)C(O)C2O)C2C1CC(O)C2C (stereo not drawn),–,–,–,–,0.93,1.05
Cl.OC(CCN1CCCC1)(c1ccccc1)C1CCCCC1 (stereo not drawn),–,–,–,–,0.978,1.11
Cl.OC(CCN1CCCC1)(c1ccccc1)C1CCCCC1 (stereo not drawn) (library stock concentration (final ~1000-fold dilution): 10 mM),1.32,0.717,1.17,1.09,–,–
Cc1ccc(C(=O)Nc2cccc(C(F)(F)F)c2)cc1Nc1nc(-c2cccnc2)nc2c1cnn2C,–,–,–,–,0.64,0.662
Cc1ccc(C(=O)Nc2cccc(C(F)(F)F)c2)cc1Nc1nc(-c2cccnc2)nc2c1cnn2C (library stock concentration (final ~1000-fold dilution): 10 mM),2.31,0.77,1.22,0.662,–,–
Cc1noc(-c2ccc(CSCCC(=O)O)cc2)c1NC(=O)OC(C)c1ccccc1Cl (stereo not drawn),–,–,–,–,0.773,0.731
Cc1noc(-c2ccc(CSCCC(=O)O)cc2)c1NC(=O)OC(C)c1ccccc1Cl (stereo not drawn) (library stock concentration (final ~1000-fold dilution): 10 mM),1.39,1.2,0.943,1.07,–,–
COc1ccc(-c2cc(=O)c3c(OC)c(OC)c(OC)c(OC)c3o2)cc1OC (library stock concentration (final ~1000-fold dilution): 10 mM),1.19 and 1.42,0.846 and 0.84,0.934 and 0.9,1.2 and 1.24,–,–
COc1ccc(CNCc2cccc3ccccc23)cc1.Cl,–,–,–,–,1.34,1.44
COc1ccc(CNCc2cccc3ccccc23)cc1.Cl (library stock concentration (final ~1000-fold dilution): 10 mM),1.45,0.82,1.04,1.06,–,–
C=C1C(CO)C(O)CC1n1cnc2c(=O)nc(N)[nH]c21.O (stereo not drawn),–,–,–,–,1.01,1.01
